Source: PubChem BioAssay AID1461 (National Center for Advancing Translational Sciences (NCATS), 2008)
Out of some 220,000 compounds screened, about 2,300 (1%) were called active. Inconclusive means that the source gave no clear call. Such entries were picked first, then a sample of the others. Calls come from the whole dose curve; as a rule, active = well fitted inhibition curve with a large enough effect; inconclusive = small, poorly fitted or top-dose-only effect, or effect the other way; inactive = no such curve, though single readings can be large or run the other way. Potencies of inconclusive entries are left out as doubtful fits.

Target: Neuropeptide S receptor (Homo sapiens) (UniProt Q6W5P4)
Experiment: qHTS Assay for Antagonists of the Neuropeptide S Receptor: cAMP Signal Transduction; note: nearly all actives have a fitted effect of over 50% in size
Details: CHO-NPSR cells, cAMP TR-FRET, antagonist mode; series mostly up to 38.3 µM
Potency is the fitted concentration of half-maximal effect; tags give direction and shape of the fitted curve.

Sequence of UniProt Q6W5P4 (Q6W5P4 whole entry, looked up): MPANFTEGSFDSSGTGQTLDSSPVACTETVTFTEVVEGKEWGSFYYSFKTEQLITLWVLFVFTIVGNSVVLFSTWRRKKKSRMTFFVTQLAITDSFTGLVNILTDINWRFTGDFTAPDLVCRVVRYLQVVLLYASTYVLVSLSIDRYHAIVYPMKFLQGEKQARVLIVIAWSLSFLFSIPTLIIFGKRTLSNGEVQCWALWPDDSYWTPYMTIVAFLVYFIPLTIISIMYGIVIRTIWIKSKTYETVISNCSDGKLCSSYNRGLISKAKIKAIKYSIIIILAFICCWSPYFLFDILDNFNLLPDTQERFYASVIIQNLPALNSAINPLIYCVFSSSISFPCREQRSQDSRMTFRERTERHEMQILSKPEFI

SMILES	Potency
COc1cc(C(=O)NCCOc2cc(C)cc(C)c2)c(Br)c(OC)c1OC	inactive
CC(C)c1ccc(NC(=O)CCNS(=O)(=O)c2cccc3nonc23)cc1	inactive
Cc1ccc(S(=O)(=O)c2c(C(=O)c3ccccc3)cnc3cc4c(cc23)OCCO4)cc1	inconclusive [inhibitor, partial curve]
Cc1ccc(NS(=O)(=O)c2cc(C(N)=O)ccc2C)cc1	inactive
NC(=S)n1[nH]c(-c2ccc([N+](=O)[O-])cc2)c(N=Nc2cccc([N+](=O)[O-])c2)c1=O	inconclusive [inhibitor, full curve, poor fit]
CCOC(=O)c1ccccc1NC(=O)Cn1cnc2c(oc3ccccc32)c1=O	inconclusive [inhibitor, partial curve]
O=C(Cn1cncn1)N1CCN(c2ccc(F)cc2)CC1	inactive
CCn1c(SCC(=O)Nc2cccc(F)c2)nnc1-c1cc2cc(Br)ccc2o1	inconclusive [inhibitor, single point]
CCOc1ccc(C2c3c(oc4cc(C)c(C)cc4c3=O)C(=O)N2CCCN2CCOCC2)cc1 (stereo unspecified)	inactive
CS(=O)(=O)N1CCCC(C(=O)NCc2ccco2)C1 (stereo unspecified)	inconclusive [inhibitor, single point]
O=C(C1=C[C@H](c2ccc(C(F)(F)F)cc2)C[C@H](OCc2ccc(CO)cc2)O1)N1CCCCCCC1	inconclusive [activator, partial curve]
O=C(Nc1cccc(-c2csc(Nc3ccccc3)n2)c1)c1ccccc1	inconclusive [inhibitor, single point]
CC(=O)Oc1cccc(N2C(=O)c3ccc(C(=O)Nc4cccnc4)cc3C2=O)c1	inactive
COc1ccc(/C=C/CN2CCN(Cc3ccc(F)cc3)C(CCO)C2)cc1 (stereo unspecified)	inactive
COc1cc(/C=N/NC(=O)c2cccc([N+](=O)[O-])c2)ccc1OCc1ccccc1	inconclusive [inhibitor, single point]
COc1ccc(-c2cc(C(F)(F)F)nc(S(C)(=O)=O)n2)cc1	inconclusive [inhibitor, single point]
N#Cc1ccccc1NC(=O)CNc1ccccc1N1CCCCC1	inactive
CC1(C)CC(=O)C2=C(C1)OC(N)=C(C#N)C21CCN(C(=O)OCc2ccccc2)CC1	inconclusive [inhibitor, partial curve]
Cn1c(SCC(=O)N/N=C/C=C/c2ccco2)nc2ccccc21	inactive
COc1ccccc1/C=N/N1C(=O)C2C3C=CC(CC3)C2C1=O (stereo unspecified)	inactive
CCC1CCCCN1C(=O)CSc1nc2c([nH]c3ccccc32)c(=O)n1C (stereo unspecified)	inconclusive [inhibitor, partial curve]
Cn1cc(C2=C(c3ccc(Cl)cc3Cl)C(=O)NC2=O)c2ccccc21	inactive
CCn1c(O)c(N=NC(=S)NCC2CCCO2)c2ccccc21 (stereo unspecified)	active: 7.94 µM
COc1ccc(C2C(C(=O)NCc3cccnc3)c3cc(OC)c(OC)cc3C(=O)N2C)cc1 (stereo unspecified)	inconclusive [inhibitor, single point]

SMILES	Potency
Clc1cccc(-c2nc(-c3ccccn3)no2)c1	inactive
CC(C)(C)c1csc(NC(=O)Cn2cnc3ccccc3c2=O)n1	inactive
Cc1ccc(C(=O)NN2C(=O)CSC2=S)cc1	inactive
Cc1cc(N2CCOCC2)c2c(N)c(Br)cc(C)c2n1	inactive
CNC(=S)N/N=C/c1c(C)cccc1Cl	inconclusive [activator, single point]
Cc1nc(SCc2ccc(F)cc2)c2oc3ccccc3c2n1	inconclusive [inhibitor, single point]
COc1cc(/C=C2/SC(=S)N(CC(=O)Nc3nc4ccccc4s3)C2=O)cc(OC)c1OC	inactive
CN1CCN(/N=C/c2ccc(-c3ccc([N+](=O)[O-])cc3Cl)o2)CC1	inconclusive [inhibitor, single point]
CCCCn1c(=O)n(C)c(=O)c2c(C(F)(F)F)cc(-c3ccncc3)nc21	inconclusive [inhibitor, partial curve]
COC(=O)CN1C(=S)N(Cc2ccccc2)C(=O)C1CC(=O)Nc1ccc(Br)cc1 (stereo unspecified)	inconclusive [inhibitor, partial curve]
Cc1ccc(C)c(-n2c(C)cc(/C=N/NC(=O)c3c(C)nc4cc(C)ccn34)c2C)c1	inconclusive [inhibitor, partial curve, poor fit]
CCOc1ccccc1-n1c(SCC(N)=O)nnc1-c1ccco1	inactive
Cc1ccc(S(=O)(=O)Nc2cccc3ncccc23)s1	active: 2 µM
CC(C)c1nc(SCC(=O)N2CCN(c3ccccc3)CC2)c2c(=O)n(C)c(=O)n(C)c2n1	inconclusive [inhibitor, single point]
CCOC(=O)/C(=C\c1cccnc1)C(=O)c1cc(C(C)=O)c(Nc2ccccc2)s1	active: 3.16 µM
COc1ccccc1N1CC(C)(C)C(=O)N(C(=O)c2ccc(Cl)cc2)C1=S	inactive
Cc1onc(-c2ccccc2Cl)c1C(=O)Nc1cccc2nsnc12	inconclusive [inhibitor, single point]
CCN(CC)CCN(C(=O)c1ccc2c(c1)CCCC2)c1nc2ccc(F)cc2s1	inconclusive [inhibitor, single point]
O=C(Nc1cc(C(F)(F)F)ccc1Cl)C(Sc1ccccn1)c1ccccc1 (stereo unspecified)	inconclusive [activator, partial curve]
O=C1Nc2ccccc2/C1=C/c1cnc(-c2ccccc2)[nH]1	inconclusive [activator, partial curve]
Brc1cc2[nH]cnc2c2ccccc12	inactive
Cc1csc(NC(=O)CCCSc2nc3ccccc3s2)n1	inactive
Cc1ccccc1/C=N/Nc1ccnc2cc(Cl)ccc12	inconclusive [inhibitor, single point]
COc1cccc(-c2nc(NCC3CCCO3)c3ccccc3n2)c1O (stereo unspecified)	inconclusive [inhibitor, single point]

SMILES	Potency
NC(=O)c1sc2nc3c(c(-c4ccc(Cl)cc4)c2c1N)CCCC3	inconclusive [inhibitor, single point]
COc1ccc(-c2nc(Cn3c(SCc4ccccc4F)nc4ccncc43)c(C)o2)cc1	inconclusive [inhibitor, partial curve, poor fit]
O=C(Nc1nc2ccsc2c(=O)s1)c1ccc(F)cc1	inconclusive [inhibitor, single point]
CNCCC=C1c2ccccc2CCc2ccccc21	inconclusive [inhibitor, full curve, poor fit]
CC(=O)N1CCN(c2nc(CC(C)C)c3c(c2C#N)CCC3)CC1	inactive
O=C(Nc1ccccc1)N(Cc1ccccc1)Cc1ccccc1	inconclusive [inhibitor, single point]
NC(=S)N/N=C/c1ccc(-c2cccc([N+](=O)[O-])c2)o1	inconclusive [inhibitor, single point]
CCn1cnc2sc(C(=O)N(Cc3ccc(N(C)C)cc3)Cc3ccco3)c(C)c2c1=O	inconclusive [inhibitor, partial curve]
COC(=O)CSc1nc(-c2ccccc2)cc(-c2ccco2)c1C#N	inconclusive [inhibitor, full curve]
CC(=O)Nc1ccc(C2=NNC(=Nc3cccc(S(=O)(=O)N(C)C)c3)SC2)cc1	inactive
O=C(Nc1ccccc1N1CCN(c2ccc(F)cc2)CC1)c1ccccc1	inconclusive [inhibitor, full curve, poor fit]
COc1ccc(N(CC(=O)N2CCc3ccccc32)S(=O)(=O)c2c(C)noc2C)cc1	inconclusive [inhibitor, single point]
Cc1cc(CN(C)Cc2cn(C)nc2-c2ccc(Oc3ccccc3)cc2)on1	inconclusive [inhibitor, single point]
COc1ccc(S(=O)(=O)N2CCOCC2)cc1C(=O)Nc1nc2ccccc2s1	inconclusive [inhibitor, single point]
Cc1ccccc1CS(=O)(=O)c1nnc([C@H](CC(C)C)NC(=O)OC(C)(C)C)o1	active: 10 µM
Cn1nc(-c2ccc(Cl)cc2)c2cc(C(=O)N3CCCC3)sc21	inconclusive [inhibitor, single point]
Cc1nc([N+](=O)[O-])c(Br)n1Cc1ccc(Cl)c(Cl)c1	inconclusive [inhibitor, single point]
O=C(CN1CCN(CC(=O)Nc2ccccc2F)CC1)Nc1ccc2c(c1)OCCO2	inactive
Cc1sc2nc(SCC(=O)N(C)Cc3ccccc3)n(-c3ccccc3)c(=O)c2c1C	inconclusive [inhibitor, partial curve, poor fit]
CCO/C(C)=N/n1c2nc3ccccc3nc2c2c(=O)n(Cc3ccccc3Cl)c(C)nc21	inactive
COc1ccc(C(=O)Nc2ccc(-c3ccc(C)o3)cc2)cc1S(=O)(=O)N1CCOCC1	inconclusive [inhibitor, partial curve, poor fit]
COc1ccc(C2CC(=O)C3=C(C2)NC(C)=C(C#N)C3c2ccc(N(C)C)cc2)cc1 (stereo unspecified)	inconclusive [inhibitor, single point]
CC(C)(C)NC(=O)NC(=O)COC(=O)c1cc[n+]([O-])cc1	inactive
